# Experimental data from PubChem BioAssay (NCI).
# The source holds several records for some structures; these can differ, active in one and inactive in another.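 For each line, cells grew in 96-well plates with the test compound present at a single concentration for 48 hours.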 For part of its entries the source gives two or more results. They are shown here; other results are not. The calls were made as follows: active = growth percent below 10; inactive = the rest. An entry can have further records. The screen tested this drug many times, at its own concentration, as given; each value is one run. Additions like (4×) count equal records among those shown.
# Assays:
# Test in all cases: NCI-60 one-dose screen, 48 h (100 = growth as untreated, 0 = no growth, -100 = all killed)
# Details in all cases: 2.5 mM
# DU-145 prostate = system: DU-145 prostate
# K-562 leukemia = system: K-562 leukemia
# MALME-3M melanoma = system: MALME-3M melanoma
structure (smiles),measurement,setting,value
O=c1[nH]cc(F)c(=O)[nH]1,growth,DU-145 prostate; runs of 1998,"active: 9.35, 8.89, -12.6, -2.65, -17.5% and inactive: 30.5, 22.4, 20.1, 26.5, 32, 38, 10.1, 24, 17.4, 29.7, 24.9, 25.3, 27.9, 23.4, 20.8, 22.1, 11.6, 43.3, 15.2, 14.8%"
same,growth,DU-145 prostate; runs of 1999,"inactive: 34.3, 20.4, 47.1, 27.1% and active: -6.27, -6.29, -51.4, -13.7, 0.192, -46.6, -69.6, -0.638, 0.227, -68.5, -77.5, -100, -38%"
same,growth,DU-145 prostate; runs of 2000,"active: 1.34, 5.87, -25.2, 0.984%"
same,growth,K-562 leukemia; runs of 1991,"inactive: 19.4, 21.5 (2×), 23.2, 18.4 (2×), 12.2, 19.9, 16.4, 13.4, 58.8, 24.5, 20.1, 21.4 (2×), 52.1 (2×), 15.8, 21.3, 12.9%"
same,growth,K-562 leukemia; runs of 1992,"inactive: 27.9, 21.7 (2×), 19, 22.2 (3×), 30.6, 22.4 (2×), 13.9 (2×), 19.4 (3×), 16.1 (4×), 24.4, 18.1, 13.5, 25.7 (3×), 24.9, 15.8, 13.7, 39.8, 47.5, 20.8 (3×), 16, 24.6, 12.5, 25.5, 21, 22.3 (4×), 22.5 (2×), 25.8, 13.2 (2×), 20.2 (2×), 27.6, 17.4 (2×), 23.9 (2×), 24.5, 18.5, 15.1, 25.3 (2×), 24.1, 27, 23.3, 22.6, 15.4, 11.5, 17.1, 35.5, 14.1, 16.4, 17, 16.2, 16.6 (2×), 16.9, 21.6, 17.9, 20.6 (2×), 16.3, 21.9, 21.3, 19.7 (2×), 21.2 (2×), 27.8, 17.6, 13.1 (2×), 18.4, 45.5, 14.8, 19.6 (2×), 33.3, 22, 14, 12.2, 46.3, 15.6, 40.5, 17.7, 26.7, 14.5, 55.2, 25.9, 20.9, 25.1, 29, 26.9, 18.7% and active: 9.83, 8.83, 5.67, 6.2, -5.13, -40.6, -9.5, 5.71, -62.7%"
same,growth,K-562 leukemia; runs of 1993,"inactive: 18.4 (2×), 23.4, 17.3, 38.2, 68.2, 14.8 (2×), 22.2, 16.8, 22.8, 45.4, 10.4, 14.5, 30.8, 21.2, 23, 16.3, 61.5, 30.1, 24.8, 19.4, 17.5, 20.2, 14.6, 19, 26.3, 17.4, 27.1, 18.8, 38.4, 33.3, 14.7, 13.2, 25.5, 20.3, 36.5, 25.1, 15.9 (2×), 15.6, 28.4% and active: 6.31, -7.94, 5.79, 6.24, 1.17%"
same,growth,K-562 leukemia; runs of 1994,"inactive: 17.7, 16.8 (2×), 20.1, 14.8, 36.5, 36.1, 21.3, 23.9, 15.9, 69.8, 16.3, 17.9, 18.2, 15.2, 15.6, 11.9, 40.3, 27.9, 28.4, 12.5, 18.8, 21.4, 23.3, 27.6, 10.6, 18.1, 35.8% and active: 6.17, 7.27, 4.85, -7.22%"
same,growth,K-562 leukemia; runs of 1995,"inactive: 16.3, 23.4, 16 (3×), 17.6, 14.3, 20.4, 14.5, 12.2, 14.7, 14.9, 11, 18.5, 26, 27.6, 18.3, 12.4, 12.6, 24.4, 55.6, 14.4, 27.7, 17.2, 17.9, 18.4% and active: -50.2, -14.2, 7.32, 5.84, 8.59, 6.89, 8.25, 3.59, -21.3, 5.8%"
same,growth,K-562 leukemia; runs of 1996,"inactive: 23.3, 47.8, 10.5, 23.6, 21, 19, 12.5, 122, 13.5, 28.8, 15.8, 11.4, 14, 10.9, 15.5, 10.2, 11.6, 23.7, 17.4 (2×), 18, 19.6, 30.2, 78.6, 15.1, 14.5, 12.9 (2×), 50.1, 28.5, 25.4, 28.1, 22.3% and active: 4.6, 6.05, 2.37, -2.79, 6.09, 5.99, 2.65, -21.9, 7.6, 8.11, 3.93, 2.44, -30.1, 6.94%"
same,growth,K-562 leukemia; runs of 1997,"active: 6.51, -9.95, -87.3, -32, -27.1, -4.12% and inactive: 21.9, 20.8, 38.2, 13.4, 22.7, 11.7, 31.6, 16.4, 56.8, 12.6, 36, 17.4, 33.5, 18.7, 27.4, 116, 20.4, 11.2, 61.1, 27, 18.6, 18.3, 14.9, 43.3, 10.9, 40.6, 43.1, 14%"
same,growth,K-562 leukemia; runs of 1998,"inactive: 19.4, 28, 33.2, 33.9 (2×), 46.5, 30.9, 23.9, 18, 19.6, 15.5 (2×), 22.9, 31.3, 19 (2×), 34.3, 19.2, 14.2, 26.6% and active: 3.16, -13.4, -15.5, 9.36%"
same,growth,K-562 leukemia; runs of 1999,"active: 9.8, 0.586, 1.17, 1.14, -85.5, -19.7, 1.23, 4.63, 0.416, 4.73, 4.01% and inactive: 30.3, 21, 55.3, 17.6, 46.8, 37.5, 115%"
same,growth,K-562 leukemia; runs of 2000,"active: 1.06%, 7.52%, 1.08% and inactive: 14.6%"
same,growth,MALME-3M melanoma; runs of 1991,"active: 0.906, -12.3, 9.92, -0.232, 6.93, 7.48, 5.66% and inactive: 29.6, 30.6, 33.9, 20.5, 18.5, 26.8, 15.9, 23.9, 39.8, 40.5, 21.1, 39.3%"
same,growth,MALME-3M melanoma; runs of 1992,"inactive: 17.2, 17.1, 10.4, 15.2, 11.6, 26.8, 20.9, 20.7, 16.4 (2×), 29.5, 20.3, 52.5, 11.1, 41.2, 49.6, 17.9, 24.8, 15.5, 17.8, 11.2, 35.7, 32.7, 48.9, 41, 12.5, 10.6 (2×), 26.5, 14.3, 28.5, 34.4, 22.1, 10.3, 12.3, 102, 17.5, 16.3, 21.5, 11.8, 18.7, 26 (2×), 34.8, 23, 25.3 (2×), 15.8, 19.7, 25.1, 14.2 (2×), 19, 33.9 (2×), 13.9, 11.4 (2×), 15.7, 14.9, 17, 11.3, 43.1, 26.2, 21.7, 24.6, 22.9, 10.2, 37.8, 21.9, 30% and active: 5.27, 1.71, -5.9, 0.54, 7.09, 2.21, -1.96, 3.99, 9.12, -4.06, 4.56, 5.39, 4.09, -8.17, 4.14, 1.25, 0.321, -2.51, -21.5, -0.548, -34.5, -1.55, 3.84, 8.17, 7.21, 8.57, 5.44, -8.82, -8.96, 4.91, 6.62, 9.95, 5.5, 5.25, -15.8, -8.43, -8.84, 0.803, 5.79, -8.26, -0.219, 9.19, -21, -11.8, -9.59, -5.43%"
